Experimental data as given in the supplement of paper PMC4466236.
The full ranking holds about 33,000 sequences; the median of “E-score (dimensionless, -0.5 to 0.5)” is about -0.058, and the highest 2% start at about 0.35. This is one part of the list.

tested on: MvaT; assay: PBM 8-mer E-score (mean of HK and ME arrays) (E-score (dimensionless, -0.5 to 0.5)); higher = stronger relative binding preference; most listed sequences are background and not binding sites
In short: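 Reported values are rank-based E-scores, taken as the mean of two universal arrays and parsed with a custom script. Each 8-mer score falls between -0.5 and 0.5. The arrays, ME and HK, were double-stranded 60-mers with a constant 25-mer primer region and a variable 35-mer region covering all 8-mers. They were probed, by an earlier protocol, with full-length P. aeruginosa MvaT carrying an N-terminal glutathione S-transferase fusion.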

Sequence | PBM 8-mer E-score
CATCACAC | 0.0723
AGATTGCT | -0.157
AGATACAC | 0.133
ACCGGGCT | -0.233
GCCGATCA | -0.201
GATTCGAA | 0.0542
ACTAATTA | 0.45
CATGCAGG | -0.119
CTTCGCCC | -0.271
AGTGATGC | 0.0354
GTTGAATA | 0.233
AAATCAGC | 0.0494
GAACAATC | -0.0504
ATATGAAC | 0.269
CCAGTGAC | -0.2
ACCGGCAT | -0.0557
CAGATTGG | -0.162
GTCACGGA | -0.109
AGAGAGCG | -0.217
CACCAAGC | -0.113
ATGGGGGC | -0.328
CAGTCCCC | -0.182
GGTCTGTA | -0.219
AAGAAGTA | 0.175
AAGATACA | 0.139

Sequence | PBM 8-mer E-score
ATATGGGG | -0.0181
GTACGGCA | -0.135
GCGGACCC | -0.209
CAACGGAA | -0.0283
CACAAATG | -0.0167
ACTAGACG | -0.119
CTCGCACC | -0.0422
AACCAGGC | -0.183
TCGTGAGA | -0.00942
TCAAGTCA | -0.0127
AAAGGCGC | -0.118
GTCCGGCA | -0.135
ATTAAAAA | 0.321
AGGCAACC | -0.0281
ACGTTTTC | -0.0292
GTCTGAAC | -0.149
AAGAATTC | 0.245
AAGGCGAA | -0.0329
ACTGTAGG | -0.076
ACGAAGGA | -0.0811
TCTTAAAA | 0.154
CTTAGTAA | 0.178
GTTATGGA | 0.184
AAAGGTCG | -0.155
TCATTAAA | 0.228

Sequence | PBM 8-mer E-score
CTTACGTC | -0.112
TCCATGCA | -0.0438
CACTCCGA | -0.123
ACTCTACA | 0.145
AGCACGCT | -0.262
AAGCACCA | -0.0658
AATGCCCG | -0.164
ACCAATAG | 0.0173
CCTCTGCC | -0.102
ATTTGCCG | 0.0909
CTCTCCTA | -0.116
AACATACG | 0.182
AGTGCTTG | -0.187
CGAATGTC | -0.16
AACAGCGA | -0.152
ATGAACAA | 0.187
GAGGCTAC | -0.292
AATAGGCA | -0.0295
CGAGTTTC | -0.0582
AGTGGTTG | 0.0398
ACGGCGTG | -0.291
GAAGGACC | -0.198
GAATAGCC | 0.0144
ACCTTACC | -0.0818
TAGCAACA | 0.0816

Sequence | PBM 8-mer E-score
CCGCTAGC | -0.139
GGACGCGA | -0.0753
AGCTGTAT | 0.127
GCTGTACA | -0.0468
AATTTGCG | 0.176
GAACATTC | -0.0126
ATGTGGGA | 0.0305
CTTGACAA | 0.113
GAGGCGAA | 0.0459
CGAGGGTC | -0.343
ACATTAGG | 0.0719
GGCCTGAC | -0.347
ACTGGAAA | 0.131
CACTGGAA | -0.13
GACAAGCA | -0.183
ATTCTTTC | 0.159
GAGCGAGA | -0.0584
AAGCTCGT | -0.106
CGAGCCTC | -0.261
CCGCAGGA | -0.0944
ACCGAAGC | -0.0986
ATCGCGCG | 0.0315
ACGAAGGC | -0.28
ACGCCTCT | -0.21
CGCCGATA | 0.0735

Sequence | PBM 8-mer E-score
GATCATCA | -0.0598
AGGCGACC | -0.224
GCCAGCCC | -0.335
CCGTAAAC | -0.104
CCATGGAC | -0.187
ACAGAAGT | 0.106
ATCGATCA | 0.204
TCACCTGA | -0.083
TGTGTTAA | 0.312
AGCGAGGG | -0.261
CGAAAGAA | 0.0883
AGTGCGAC | -0.0683
ACCCGAGG | -0.137
TACTGGGA | -0.00513
CTCGTTGC | -0.187
CCATTATA | 0.302
ATGGTTTA | 0.261
GCAGGAAC | -0.303
CTATGACA | -0.109
ATACATGC | 0.172
CGCGTTCA | -0.0736
CATGCCGG | -0.161
GTACAACA | 0.176
GTACACAA | 0.00256
AACAGAAA | 0.254

Sequence | PBM 8-mer E-score
ACGATGGC | -0.12
CGTCTTGA | -0.0993
AATTATCC | 0.296
ACATGGTA | -0.00482
CCACCGAA | -0.15
ATTCATGA | 0.148
ATCAAAGG | -0.0951
ATGAGACC | -0.178
CAAGGGCA | -0.18
ACGCCATC | -0.248
GCGGGCCA | -0.32
ATGGCCAA | 0.00263
GTGTAATA | 0.342
TACATTAA | 0.38
AGATTTAG | -0.00309
CTCTTGTC | -0.162
GAATAGTA | 0.229
CGTATCCA | -0.0187
GAAATGTC | 0.0435
AAGATTGA | 0.0199
AGTAAATC | 0.0898
GGATAAGA | 0.0379
AACACGCC | -0.0824
CACTCCCG | -0.258
CGGACAAG | -0.281

Sequence | PBM 8-mer E-score
CAAACCCA | 0.0185
GAGCGACC | -0.23
CTAAGAAG | -0.123
ATCGTCAA | 0.0361
CACCTTAG | -0.171
ATCGTTGA | -0.102
AGCATTAG | -0.0543
AAACGGTA | -0.0714
CTCTCTGC | -0.243
ACCCACGT | -0.138
GCTCTTTA | 0.117
ACATTTAT | 0.336
ATGACGAG | 0.0346
ATAAATGG | 0.14
CGGGATTA | 0.00532
ACGGACTC | -0.223
GCAACCCC | -0.264
ACTGAGAA | 0.0967
TAGATGGA | -0.0217
GAGTCCGC | -0.237
CACGGAAA | -0.113
ATCACAAT | 0.079
